Here are results for three compounds from patent US4866044A, “Solubilized composition of poorly-soluble pharmaceutical product” (Takeda Chemical Industries, Ltd., priority 1985, dated 1989).

For series [1] the following is noted: stored for a long term.
The conditions of series [2]: for solubility in water: 5° C., 50 mg in 1 ml of water.

With `CCCCCCCCCCCCCCCCCCNC(=O)OCC(COP(=O)([O-])OCC[n+]1ccsc1)OC` (centres unmarked) [Compound [1], 3-(n-Octadecylcarbamoyloxy)-2-methoxypropyl 2-thiazolioethyl phosphate], the “stability in aqueous solution” value in series [1] is on record as “unstable”. In addition, in series [2], the solubility in water result is “cloudy”.

With `CCCCCCCCCCCCCCCCCCOCC(COP(=O)([O-])OCC[N+](C)(C)C)OC` (centres unmarked) [Compound [2]], in series [2], the solubility in water entry is recorded as “clear semi-solid”.

`CCCCCCCCCCCCCCCCCCNC(=O)OCC(COP(=O)([O-])OCC[N+](C)(C)C)OC` (centres unmarked) [Compound [3]]: the solubility in water entry in series [2] is “clear semi-solid”. Also, the “properties of combination with sodium salicylate” value in series [2] (with sodium salicylate, unsuitable for intravenous administration) is recorded as “semisolid”.
